{"source": "PubChem BioAssay AID624296", "about": "(National Center for Advancing Translational Sciences (NCATS), 2012)", "note": "Out of some 350,000 compounds screened, about 9,900 (2.8%) were called active. Inconclusive results, whose numbers are uncertain, are shown with a selection of clear calls. Calls come from the whole dose curve; as a rule, active = well fitted activation curve with a large enough effect; inconclusive = small, poorly fitted or top-dose-only effect; inactive = no such curve, though single readings can be large or run the other way. Potencies of inconclusive entries are left out as doubtful fits. Potency is the fitted concentration of half-maximal effect; tags give direction and shape of the fitted curve."}
{"assay": "A quantitative high throughput screen for small molecules that induce DNA re-replication in MCF 10a normal breast cells; note: nearly all actives have a fitted effect of over 50% in size; for activity, positive = re-replication: % of control where 0% means no effect.", "conditions": "MCF 10A DNA re-replication, Hoechst nuclear intensity, 48 h; activity, positive = re-replication: at 46.1 µM (top of the series)"}
{"compound": "COc1ccc(C(=O)c2cc(OC)c(OC)c(OC)c2)cc1OC", "Potency": "active: 3.66 µM"}
{"compound": "Cc1cnc(NC(=O)CN(C)S(=O)(=O)c2ccc(Cl)cc2)s1", "Potency": "inconclusive [activator, full curve, poor fit]"}
{"compound": "CN=c1sc2ccccc2n1CC(O)COCc1ccco1", "note": "(stereo unspecified)", "activity, positive = re-replication": "inactive: -2.43%"}
{"compound": "COC(=O)c1ccc(COc2ccccc2/C=C(\\C#N)C(=O)Nc2ccc(C)cc2C)cc1", "Potency": "inconclusive [activator, partial curve, poor fit]"}
{"compound": "O=C(CN1CCN(c2ncc(C(F)(F)F)cc2Cl)CC1)N1CCN(c2ncc(C(F)(F)F)cc2Cl)CC1", "Potency": "inconclusive [activator, single point]"}
{"compound": "CSc1nc2ccc(NS(=O)(=O)c3cccc(Cl)c3Cl)cc2s1", "Potency": "inconclusive [activator, single point]"}
{"compound": "COc1ccc(/C=C2\\SC(=O)N(CCC(=O)Nc3ccc(S(=O)(=O)Nc4nccs4)cc3)C2=O)cc1", "Potency": "inconclusive [activator, single point]"}
{"compound": "CCn1nc(NC(=O)c2ccncc2)c2cc3cc(C)ccc3nc21", "Potency": "active: 8.2 µM"}
{"compound": "O=C1C=C(c2cccc(Br)c2)C[C@@H](c2ccc(Cl)cc2)C1", "activity, positive = re-replication": "inactive: 24.3%"}
{"compound": "Cc1cccc(NC(=O)C2Cc3ccccc3O/C2=N\\O)c1", "note": "(stereo unspecified)", "activity, positive = re-replication": "inactive: 6.24%"}
{"compound": "COc1ccc(CCn2c(SCC(=O)Nc3cc(C)on3)nc3ccsc3c2=O)cc1OC", "Potency": "inconclusive [activator, single point]"}
{"compound": "CCOC(=O)c1c(-c2ccccc2)oc2ccc(OCC(O)CNCCN(C)C)cc12", "note": "(stereo unspecified)", "Potency": "inconclusive [activator, single point]"}
{"compound": "COc1ccc(-c2nc(N)ncc2-c2csc(C)n2)c(O)c1", "Potency": "inconclusive [activator, full curve, poor fit]"}
{"compound": "COc1ccccc1NS(=O)(=O)c1cc(C(=O)N2CCN(C(=O)c3ccco3)CC2)ccc1F", "activity, positive = re-replication": "inactive: 13.7%"}
{"compound": "Nc1scn[n+]1Cc1cccc2cccnc12", "Potency": "inconclusive [activator, single point]"}
{"compound": "COc1ccc2[nH]c3c(c2c1)CCN1C(=O)C(CC(=O)NCCC2=CCCCC2)C[C@H](C(=O)N2CCOCC2)[C@@]31CCC1CCCC1", "note": "(stereo partly specified)", "activity, positive = re-replication": "inactive: -9.5%"}
{"compound": "COc1ccc(CSc2nnnn2Cc2ccccc2)cc1OC", "Potency": "inconclusive [activator, partial curve, poor fit]"}
{"compound": "Cc1ccc(N2C(S)=C(C#N)C(=O)NC23CCCCC3)cc1", "Potency": "inconclusive [activator, single point]"}
{"compound": "COc1ccc(N2CCN(c3oc(Cc4ccccc4)nc3C#N)CC2)cc1", "Potency": "inconclusive [activator, single point]"}
{"compound": "CC1CCN(CC(=O)Nc2cccc(C(=O)Nc3cccc(C(F)(F)F)c3)c2)CC1", "Potency": "inconclusive [activator, single point]"}
{"compound": "COc1ccc(CN2CC(=O)N3[C@H]4c5cc(C)ccc5OC[C@@H]4[C@H](c4ccccc4)[C@]3(C)C2=O)cc1", "Potency": "inconclusive [activator, single point]"}
{"compound": "CC(C)(O)C(O)COc1c2ccoc2cc2oc(=O)ccc12", "note": "(stereo unspecified)", "Potency": "inconclusive [activator, single point]"}
{"compound": "C=C1CN(Cc2ccccc2)S(=O)(=O)c2ccccc21", "Potency": "inconclusive [activator, partial curve, poor fit]"}
{"compound": "OCC[C@H]1C[C@H](O)[C@@H](O)[C@]2(OCc3ccccc32)O1", "Potency": "inconclusive [activator, partial curve, poor fit]"}
{"compound": "Cc1ccc(C(C[N+](=O)[O-])Sc2ccc(N)cc2)cc1", "note": "(stereo unspecified)", "Potency": "active: 7.31 µM"}
{"compound": "CC(=O)[C@@]12O[C@@H]1C[C@H]1[C@@H]3CC[C@H]4C[C@@H](O)CC[C@]4(C)[C@H]3CC[C@@]12C", "Potency": "inconclusive [activator, single point]"}
{"compound": "CC1CCCN(C(=O)CCNC(=O)Cn2cnc3ccccc3c2=O)C1", "note": "(stereo unspecified)", "activity, positive = re-replication": "inactive: -1.45%"}
{"compound": "O=C(NNc1ncnc2c1cnn2-c1ccc(F)cc1)c1cccs1", "Potency": "inconclusive [activator, partial curve, poor fit]"}
{"compound": "Cc1cc(C)cc(-c2nnc(SCC(=O)c3ccc4c(c3)OCCO4)o2)c1", "Potency": "inconclusive [activator, single point]"}
{"compound": "Cc1cnc(NC(=O)COc2cccc3c2OC(C)(C)C3)s1", "Potency": "inconclusive [activator, partial curve, poor fit]"}
{"compound": "COc1cccc(C(=O)/C=C/Nc2ccc(NC(C)=O)cc2)c1", "Potency": "inconclusive [activator, single point]"}
{"compound": "CN(C)C(CNC(=O)c1cccc(S(=O)(=O)NCc2ccccc2)c1)c1ccccc1", "note": "(stereo unspecified)", "Potency": "inconclusive [activator, partial curve, poor fit]"}
{"compound": "COc1ccc(C(=O)/C=C/c2ccc(OC(=O)c3cc(OC)c(OC)c(OC)c3)cc2)cc1", "Potency": "inconclusive [activator, partial curve, poor fit]"}
{"compound": "Nc1nonc1-c1noc(CCCN2C(=O)c3ccccc3C2=O)n1", "Potency": "inconclusive [activator, single point]"}
{"compound": "CC(C)(C)OC(=O)N(CCc1ccccc1)Cc1ccc(OCc2cccc(NC(=O)C3CCC3)c2)cc1", "Potency": "inconclusive [activator, partial curve, poor fit]"}
{"compound": "Cc1ccc(NC(=O)CSC2=C(C#N)C(c3ccco3)CC(=O)N2)cc1", "note": "(stereo unspecified)", "activity, positive = re-replication": "inactive: 13.5%"}
{"compound": "Cc1cc2c(c(N)n1)c(=O)oc1ccccc12", "Potency": "inconclusive [activator, single point]"}
{"compound": "Cc1ccc2occ(C(=O)c3ccco3)c(=O)c2c1", "Potency": "inconclusive [activator, full curve, poor fit]"}
{"compound": "O=C(CSc1nnnn1Cc1ccccc1)c1ccc(F)cc1", "Potency": "inconclusive [activator, single point]"}
{"compound": "COc1ccc(NC(=O)CSc2ccc3c4c(cccc24)C(=O)c2ccccc2-3)cc1", "Potency": "active: 2.59 µM"}
{"compound": "COc1ccc(-c2sc3ccccc3c2-c2ccc(O)cc2)cc1", "Potency": "inconclusive [activator, partial curve, poor fit]"}
